# Experimental data from the supplement of paper PMC8728848.
# This is one part of the list.
# B1: LEA (Lycopersicon esculentum) (protein)
# chain: NEVFDVPMNETIGVESINASVGGYPRCGAQGDGGNCPSGMCCSVWGWCGKTYGYCAPQNCQKQCPAPYPEGRCGWQADGKSCPNGKCCSYGGWCGTTSDYCARQNCQKQCILPSPPPPPPPPPGFPRPECGLQKNGERCTKPGECCSIWGLCGATYKYCDPQHCQKQCSAPFPPGRCGWQADGRPCPTGQCCSFSGWCGTTSAHCTYPQCVSQCNDPRFPSSLNNRIQSFML
# Columns and labels:
# Test in all cases: glycan array binding signal (z-score within array); higher = stronger binding
# Conditions in all cases: glycan notation: IUPAC condensed, linker removed
# Fuc(b1-3)GlcNAc = target: Fuc(b1-3)GlcNAc
# In short: (§1)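 Glycan array binding is given as a within-array Z-score, which can be read as non-binding when negative. The arrays, 3228 of them, came from the Consortium for Functional Glycomics database and were retained only where the protein sequence was available. Z-scores were averaged across arrays of the same protein sequence at different concentrations or buffers and across linkers.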
# Gal(a1-2)Gal = target: Gal(a1-2)Gal
# In short: as §1
# Gal(a1-3)Gal = target: Gal(a1-3)Gal
# In short: as §1
# Gal(a1-3)Gal(b1-3)Glc = target: Gal(a1-3)Gal(b1-3)Glc
# In short: as §1
# Gal(a1-3)Gal(b1-3)GlcNAc = target: Gal(a1-3)Gal(b1-3)GlcNAc
# In short: as §1
# Gal(a1-3)Gal(b1-4)GlcNAc = target: Gal(a1-3)Gal(b1-4)GlcNAc
# In short: as §1
# [1] = target: Gal(a1-3)Gal(b1-4)[Fuc(a1-3)]GalNAc
# In short: as §1
# Gal(a1-3)GlcNAc = target: Gal(a1-3)GlcNAc
# In short: as §1
# [2] = target: Gal(a1-3)[Gal(a1-4)]Gal(b1-4)GlcNAc
# In short: as §1
# Gal(a1-4)Gal(b1-4)Gal = target: Gal(a1-4)Gal(b1-4)Gal
# In short: as §1
# Gal(a1-4)Gal(b1-4)GalNAc = target: Gal(a1-4)Gal(b1-4)GalNAc
# In short: as §1
# Gal(a1-4)GlcNAc = target: Gal(a1-4)GlcNAc
# In short: as §1
# Gal(a1-6)Glc = target: Gal(a1-6)Glc
# In short: as §1
# Gal(b1-2)Gal = target: Gal(b1-2)Gal
# In short: as §1
# Gal(b1-3)Gal = target: Gal(b1-3)Gal
# In short: as §1
# Gal(b1-3)GalNAc = target: Gal(b1-3)GalNAc
# In short: as §1
# [3] = target: Gal(b1-3)GalNAc(b1-3)Gal(a1-4)Gal(b1-4)Glc
# In short: as §1
# [4] = target: Gal(b1-3)GalNAc(b1-3)Gal(b1-4)Glc
# In short: as §1
# [5] = target: Gal(b1-3)GalNAc(b1-3)Gal(b1-4)GlcNAc
# In short: as §1
# [6] = target: Gal(b1-3)GalNAc(b1-4)Gal(b1-4)Glc
# In short: as §1
# [7] = target: Gal(b1-3)GalNAc(b1-4)[Neu5Ac(a2-3)]Gal(b1-4)Glc
# In short: as §1
# [8] = target: Gal(b1-3)GlcNAc(b1-3)Gal(b1-3)GlcNAc
# In short: as §1
# [9] = target: Gal(b1-3)[Fuc(a1-4)]GlcNAc
# In short: as §1
# [10] = target: Gal(b1-3)[Fuc(a1-4)]GlcNAc(b1-3)Gal(b1-3)[Fuc(a1-4)]GlcNAc
# In short: as §1
# [11] = target: Gal(b1-3)[Fuc(a1-4)]GlcNAc(b1-3)Gal(b1-4)GlcNAc
# In short: as §1
# [12] = target: Gal(b1-3)[Fuc(a1-4)]GlcNAc(b1-3)Gal(b1-4)[Fuc(a1-3)]GlcNAc
# In short: as §1
# [13] = target: Gal(b1-3)[GlcNAc(b1-6)]GalNAc
# In short: as §1
# [14] = target: Gal(b1-3)[GlcNAc(b1-6)]GlcNAc
# In short: as §1
# [15] = target: Gal(b1-3)[Neu5Ac(a2-6)]GalNAc
# In short: as §1
# [16] = target: Gal(b1-3)[Neu5Ac(a2-6)]GlcNAc
# In short: as §1
# [17] = target: Gal(b1-3)[Neu5Ac(a2-6)]GlcNAc(a1-4)Gal(b1-4)Glc
# In short: as §1
# [18] = target: Gal(b1-3)[Neu5Ac(b2-6)]GlcNAc
# In short: as §1
# [19] = target: Gal(b1-4)GalNAc(a1-3)[Fuc(a1-2)]Gal(b1-4)GlcNAc
# In short: as §1
# [20] = target: Gal(b1-4)GalNAc(b1-3)[Fuc(a1-2)]Gal(b1-4)GlcNAc
# In short: as §1
# Gal(b1-4)Glc = target: Gal(b1-4)Glc
# In short: as §1
# Gal(b1-4)Glc6S = target: Gal(b1-4)Glc6S
# In short: as §1
# Gal(b1-4)GlcNAc = target: Gal(b1-4)GlcNAc
# In short: as §1
# [21] = target: Gal(b1-4)GlcNAc(b1-2)Man(a1-3)[Gal(b1-4)GlcNAc(b1-2)Man(a1-6)]Man(b1-4)GlcNAc(b1-4)GlcNAc
# In short: as §1
# [22] = target: Gal(b1-4)GlcNAc(b1-3)Gal(b1-3)GlcNAc
# In short: as §1
# [23] = target: Gal(b1-4)GlcNAc(b1-3)Gal(b1-4)Glc
# In short: as §1
# [24] = target: Gal(b1-4)GlcNAc(b1-3)Gal(b1-4)GlcNAc
# In short: as §1
# [25] = target: Gal(b1-4)GlcNAc(b1-3)Gal(b1-4)GlcNAc(b1-3)Gal(b1-4)GlcNAc
# In short: as §1
# [26] = target: Gal(b1-4)GlcNAc(b1-3)Gal(b1-4)[Fuc(a1-3)]GlcNAc(b1-3)Gal(b1-4)[Fuc(a1-3)]GlcNAc
# In short: as §1
# [27] = target: Gal(b1-4)GlcNAc(b1-3)GalNAc
# In short: as §1
# [28] = target: Gal(b1-4)GlcNAc(b1-3)[Gal(b1-4)GlcNAc(b1-6)]GalNAc
# In short: as §1
binder,measurement,setting,value
B1,glycan array binding signal (z-score),Fuc(b1-3)GlcNAc,-0.538
same,glycan array binding signal (z-score),Gal(a1-2)Gal,-0.553
same,glycan array binding signal (z-score),Gal(a1-3)Gal,-0.553
same,glycan array binding signal (z-score),Gal(a1-3)Gal(b1-3)Glc,-0.529
same,glycan array binding signal (z-score),Gal(a1-3)Gal(b1-3)GlcNAc,-0.52
same,glycan array binding signal (z-score),Gal(a1-3)Gal(b1-4)GlcNAc,2.22
same,glycan array binding signal (z-score),[1],-0.559
same,glycan array binding signal (z-score),Gal(a1-3)GlcNAc,-0.543
same,glycan array binding signal (z-score),[2],1.96
same,glycan array binding signal (z-score),Gal(a1-4)Gal(b1-4)Gal,-0.546
same,glycan array binding signal (z-score),Gal(a1-4)Gal(b1-4)GalNAc,2.17
same,glycan array binding signal (z-score),Gal(a1-4)GlcNAc,-0.545
same,glycan array binding signal (z-score),Gal(a1-6)Glc,-0.541
same,glycan array binding signal (z-score),Gal(b1-2)Gal,-0.534
same,glycan array binding signal (z-score),Gal(b1-3)Gal,-0.537
same,glycan array binding signal (z-score),Gal(b1-3)GalNAc,-0.539
same,glycan array binding signal (z-score),[3],-0.547
same,glycan array binding signal (z-score),[4],-0.489
same,glycan array binding signal (z-score),[5],2.38
same,glycan array binding signal (z-score),[6],-0.552
same,glycan array binding signal (z-score),[7],-0.548
same,glycan array binding signal (z-score),[8],-0.561
same,glycan array binding signal (z-score),[9],-0.546
same,glycan array binding signal (z-score),[10],-0.562
same,glycan array binding signal (z-score),[11],-0.557
same,glycan array binding signal (z-score),[12],-0.546
same,glycan array binding signal (z-score),[13],-0.549
same,glycan array binding signal (z-score),[14],-0.566
same,glycan array binding signal (z-score),[15],-0.557
same,glycan array binding signal (z-score),[16],-0.549
same,glycan array binding signal (z-score),[17],-0.546
same,glycan array binding signal (z-score),[18],-0.549
same,glycan array binding signal (z-score),[19],1.97
same,glycan array binding signal (z-score),[20],2.17
same,glycan array binding signal (z-score),Gal(b1-4)Glc,-0.552
same,glycan array binding signal (z-score),Gal(b1-4)Glc6S,-0.026
same,glycan array binding signal (z-score),Gal(b1-4)GlcNAc,1.88
same,glycan array binding signal (z-score),[21],-0.492
same,glycan array binding signal (z-score),[22],-0.542
same,glycan array binding signal (z-score),[23],-0.471
same,glycan array binding signal (z-score),[24],2.07
same,glycan array binding signal (z-score),[25],2.07
same,glycan array binding signal (z-score),[26],-0.53
same,glycan array binding signal (z-score),[27],-0.559
same,glycan array binding signal (z-score),[28],-0.527
